Laboratory results taken from the RNAGym collection of RNA variant scans (doi:10.1093/nar/gkz1192).
Read counts are not given, so values of variants with three or more changes are uncertain.

B1: CPEB3 Ribozyme (parent)
chain: UAACAGGGGGCCACAGCAGAAGCGUUCACGUCGCAGCCCCUGUCAGAUUCUGGUGAAUCUGCGAAUUCUGCUGUAUAUCUC

Variants of: B1
Assay: self-cleavage, relative activity (ratio to wild type); higher = more cleavage; in vitro, sequencing
Outline: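 After error-prone PCR and barcoding, CPEB3 ribozyme mutant libraries were transcribed with T7 RNA polymerase at 37°C for 5 hours, then given 15 min with DNase I before an EDTA stop, and they cleaved during both steps. Reverse transcription with template switching preceded Illumina sequencing. Relative activity divides a variant's cleaved/total read fraction by the unmutated ribozyme's. At least 5 reads were required per variant, and three batches were averaged.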

Which self-cleavage does the source give for U54C G73U A77U here?
The self-cleavage was 0.7.

Which self-cleavage does the source give for A56U U60C U72C here?
The self-cleavage was 0.26.

Which self-cleavage does the source give for C50U U74C U76A here?
The self-cleavage was 1.22.

With U54A U60A A65U as the variant, how does the self-cleavage read?
The self-cleavage was 0.44.

With G53A G73U A75U as the variant, how does the self-cleavage read?
The self-cleavage was 1.28.

Which self-cleavage does the source give for U51A C71A U76A here?
The self-cleavage was 0.34.

Which self-cleavage does the source give for A56U U72C U80C here?
The self-cleavage was 1.12.

With A64G U66C U80C C81U as the variant, how does the self-cleavage read?
The self-cleavage was 0.25.

With U49G A64G A77U as the variant, how does the self-cleavage read?
The self-cleavage was 0.42.

With A56G U60C U72C as the variant, how does the self-cleavage read?
Its self-cleavage is 0.36.

For G55A A57G G61A, which self-cleavage is on record?
Its self-cleavage is 0.27.

With G73A A75G U78C as the variant, how does the self-cleavage read?
Its self-cleavage is 1.26.

For U67C A75U A77G, which self-cleavage is on record?
The self-cleavage was 0.34.

Which self-cleavage does the source give for U54C C59U U67C here?
The self-cleavage was 0.11.

For U51A U78C U80A, which self-cleavage is on record?
Its self-cleavage is 1.22.

For U51A U60C U74A, which self-cleavage is on record?
Its self-cleavage is 1.05.

For A64U U67A U72C, which self-cleavage is on record?
The self-cleavage was 0.3.

With A64U U67A U72A as the variant, how does the self-cleavage read?
Its self-cleavage is 0.22.

For U60C U69A U78A U80C, which self-cleavage is on record?
Its self-cleavage is 0.24.

For U54C U60C A64G C68G U78C, which self-cleavage is on record?
The self-cleavage was 0.29.

With U54C A64U U74C U78C as the variant, how does the self-cleavage read?
Its self-cleavage is 0.23.

For U51A U54C C62U A64U, which self-cleavage is on record?
Its self-cleavage is 0.21.

With A56G A57G U67G as the variant, how does the self-cleavage read?
The self-cleavage was 0.11.

With U51A U72A U80C as the variant, how does the self-cleavage read?
Its self-cleavage is 1.29.

For U74A U76G A77G, which self-cleavage is on record?
Its self-cleavage is 1.4.

Which self-cleavage does the source give for U54C A56G U72C here?
Its self-cleavage is 0.39.

For A57G U58G G70U, which self-cleavage is on record?
The self-cleavage was 0.1.

For C59U U60C A65G U72C, which self-cleavage is on record?
The self-cleavage was 0.29.

With A65G U66C U74C U76C as the variant, how does the self-cleavage read?
Its self-cleavage is 0.33.

With U51C U66C U67C as the variant, how does the self-cleavage read?
The self-cleavage was 0.37.

With U54A A64G U72A U76C as the variant, how does the self-cleavage read?
The self-cleavage was 0.75.

For A57G U66C U69A C79A, which self-cleavage is on record?
The self-cleavage was 0.23.

With U60C U69A A77U U80C as the variant, how does the self-cleavage read?
The self-cleavage was 0.35.

For U49C U66A U67C, which self-cleavage is on record?
The self-cleavage was 0.13.

With U60G A65G U80A as the variant, how does the self-cleavage read?
Its self-cleavage is 0.33.

For U49C U58C A77U, which self-cleavage is on record?
Its self-cleavage is 0.16.

Which self-cleavage does the source give for U60C U66A U69C here?
The self-cleavage was 0.39.

For U51G A57G G63A U66C, which self-cleavage is on record?
The self-cleavage was 0.41.

Which self-cleavage does the source give for U60A A64U U69C here?
The self-cleavage was 0.22.

With U58C A65G U78C as the variant, how does the self-cleavage read?
Its self-cleavage is 0.18.

For U54G A57G G70U, which self-cleavage is on record?
The self-cleavage was 0.17.

With G52A A57G C62G as the variant, how does the self-cleavage read?
Its self-cleavage is 0.43.

For A64U U69G U80C, which self-cleavage is on record?
The self-cleavage was 0.42.

Which self-cleavage does the source give for G63A U69A U80C here?
Its self-cleavage is 0.36.

With C50A G61U C62A as the variant, how does the self-cleavage read?
Its self-cleavage is 0.15.

Which self-cleavage does the source give for G53A A64G U76A here?
The self-cleavage was 1.02.

With U54C C71U U72C as the variant, how does the self-cleavage read?
The self-cleavage was 0.51.

For C50A C62U G70A A77G C79U U80C, which self-cleavage is on record?
Its self-cleavage is 0.31.

Which self-cleavage does the source give for U60C C62U U76C here?
The self-cleavage was 0.17.

For U60C G61A A64U, which self-cleavage is on record?
Its self-cleavage is 0.16.

For U51A U60C C62A U69C, which self-cleavage is on record?
Its self-cleavage is 0.47.

For C62A A65U U80A, which self-cleavage is on record?
Its self-cleavage is 0.11.

For U60C U66C U69C, which self-cleavage is on record?
The self-cleavage was 0.43.

For U51C C59G U66C A75U, which self-cleavage is on record?
The self-cleavage was 0.15.

Which self-cleavage does the source give for A57G U58C A77G here?
Its self-cleavage is 0.17.

Which self-cleavage does the source give for C68U U72A U76C here?
The self-cleavage was 0.55.

With U72C U78C U80C as the variant, how does the self-cleavage read?
The self-cleavage was 1.21.

With G52A U72C C79A as the variant, how does the self-cleavage read?
Its self-cleavage is 1.24.

Which self-cleavage does the source give for U51A A64G U69C here?
Its self-cleavage is 0.69.

With U51A C62A U78A as the variant, how does the self-cleavage read?
The self-cleavage was 0.17.

Which self-cleavage does the source give for U60A A65U U69C U74C here?
Its self-cleavage is 0.31.

For A56U A64G U80A, which self-cleavage is on record?
The self-cleavage was 0.55.

Which self-cleavage does the source give for U51C G63A U76C here?
Its self-cleavage is 0.87.

Which self-cleavage does the source give for A65G U69A U72C here?
Its self-cleavage is 0.44.

Which self-cleavage does the source give for U54C U60C C81U here?
The self-cleavage was 0.61.

With A56G A57G U60C U69C A75G U76C as the variant, how does the self-cleavage read?
Its self-cleavage is 0.13.

With C59A U60A U66C as the variant, how does the self-cleavage read?
Its self-cleavage is 0.19.

For U69C G70A C71G, which self-cleavage is on record?
Its self-cleavage is 0.31.

Which self-cleavage does the source give for U60A C68U G70A U76A here?
Its self-cleavage is 0.39.

With U51A U74A C81U as the variant, how does the self-cleavage read?
Its self-cleavage is 1.35.

Which self-cleavage does the source give for U54C A64G U67C here?
The self-cleavage was 0.19.
